These are yes or no findings as the source states them, for the method shown. Some binding calls cover weakened binding; strength is not graded here. Where a sequence is shown, tags or fusion partners need not be part of it.
What was measured:
[1] = target: T1, BD-PYL9 (Arabidopsis thaliana) (UniProt Q84MC7); experiment: two-hybrid; BD-PYLs (pGBKT7) with AD-PUBs (pGADT7) in yeast; growth on SC medium lacking Tryptophan, Leucine and Histidine
T1 sequence: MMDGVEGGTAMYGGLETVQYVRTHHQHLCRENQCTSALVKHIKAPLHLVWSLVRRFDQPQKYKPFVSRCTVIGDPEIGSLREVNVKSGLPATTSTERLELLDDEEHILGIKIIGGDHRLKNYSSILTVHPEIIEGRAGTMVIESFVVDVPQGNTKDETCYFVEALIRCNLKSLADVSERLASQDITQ

[2] = target: T2, BD-PYL10 (Arabidopsis thaliana) (UniProt Q8H1R0); experiment: as above
T2 sequence: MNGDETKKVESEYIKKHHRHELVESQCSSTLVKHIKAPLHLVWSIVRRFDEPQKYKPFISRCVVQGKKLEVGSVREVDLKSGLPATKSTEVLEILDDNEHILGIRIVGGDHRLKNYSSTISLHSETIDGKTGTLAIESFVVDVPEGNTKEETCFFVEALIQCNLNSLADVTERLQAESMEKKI

[3] = target: T3, BD-PYL5 (Arabidopsis thaliana) (UniProt Q9FLB1); experiment: as above
T3 sequence: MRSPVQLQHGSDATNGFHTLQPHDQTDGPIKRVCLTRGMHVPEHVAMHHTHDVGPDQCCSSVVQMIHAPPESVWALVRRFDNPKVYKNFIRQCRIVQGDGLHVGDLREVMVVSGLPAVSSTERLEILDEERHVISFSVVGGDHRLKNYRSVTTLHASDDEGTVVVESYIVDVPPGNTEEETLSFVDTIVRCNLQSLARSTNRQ

[4] = target: T4, BD-PYL7 (Arabidopsis thaliana) (UniProt Q1ECF1); experiment: as above
T4 sequence: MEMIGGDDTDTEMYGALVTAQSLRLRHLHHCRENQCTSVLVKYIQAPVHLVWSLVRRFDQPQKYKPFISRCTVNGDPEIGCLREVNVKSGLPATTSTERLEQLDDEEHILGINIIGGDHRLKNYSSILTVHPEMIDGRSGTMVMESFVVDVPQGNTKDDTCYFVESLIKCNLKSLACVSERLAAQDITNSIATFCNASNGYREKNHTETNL

[5] = target: T5, BD-PYL8 (Arabidopsis thaliana) (UniProt Q9FGM1); experiment: as above
T5 sequence: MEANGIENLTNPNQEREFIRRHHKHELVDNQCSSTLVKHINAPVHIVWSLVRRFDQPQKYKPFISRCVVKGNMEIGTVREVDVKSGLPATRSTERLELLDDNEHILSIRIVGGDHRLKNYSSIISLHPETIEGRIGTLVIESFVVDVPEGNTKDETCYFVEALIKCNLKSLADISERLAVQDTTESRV

[6] = target: T6, MBP-PUB22 (Arabidopsis thaliana, UniProt Q9SVC6 1-435); experiment: pull-down; MBP-PUBs or MBP on amylose resin incubated with GST-PYLs for 1 h at room temperature in 20 mM Tris-HCl pH 7.2, 10 mM MgCl2, 2 mM DTT; washed five times; blot with anti-GST antibody; both purified
T6 construct: PUB22, plant U-box E3 ubiquitin ligase, Arabidopsis thaliana; Kept on the amylose resin for the pull-down; source: E. coli BL21 (DE3), purified (amylose resin); not shown: MBP, N-terminal, kept
T6 sequence (looked up): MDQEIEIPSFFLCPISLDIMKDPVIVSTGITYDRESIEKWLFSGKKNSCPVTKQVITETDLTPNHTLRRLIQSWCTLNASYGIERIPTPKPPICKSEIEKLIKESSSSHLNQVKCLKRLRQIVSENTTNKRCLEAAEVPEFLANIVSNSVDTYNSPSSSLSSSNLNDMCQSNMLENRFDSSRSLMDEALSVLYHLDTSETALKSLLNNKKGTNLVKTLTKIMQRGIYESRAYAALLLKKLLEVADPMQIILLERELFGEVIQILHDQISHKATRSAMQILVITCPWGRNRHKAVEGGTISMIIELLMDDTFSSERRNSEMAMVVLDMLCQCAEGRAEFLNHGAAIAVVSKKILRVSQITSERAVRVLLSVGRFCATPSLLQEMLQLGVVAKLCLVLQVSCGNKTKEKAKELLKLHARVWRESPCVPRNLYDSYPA

B1: AD-PUB23 (enzyme, UniProt Q84TG3 1-411)
chain: MSGGIMDEEIEIPPFFLCPISLEIMKDPVIVSTGITYDRDSIEKWLFAGKKNSCPVTKQDITDADLTPNHTLRRLIQSWCTLNASYGVERIPTPRPPICKSEIEKLIRDSASSHENQVKCLKRLRQIVSENATNKRCLEAAGVPEFLANIVSNDSENGSLTDEALNLLYHLETSETVLKNLLNNKKDNNIVKSLTKIMQRGMYESRVYATLLLKNILEVADPMQSMTLKPEVFTEVVQILDDRISQKATKAAMHILVNICPWGRNRHKAVEAGVISVIIELLMDESFTSERRGPEMAMVVLDLLCQCAEGRAEFLNHGAAIAVVCKKILRVSQTASDRAVRVLLSVGRFCATPALLHEMLQLGVVAKLCLVLQVSCGGKTKEKAKELLKLHARVWKDSPCLPKNMILAYPC
- binding [1]: binds

B2: AD-PUB22 (enzyme, UniProt Q9SVC6 1-435)
chain: MDQEIEIPSFFLCPISLDIMKDPVIVSTGITYDRESIEKWLFSGKKNSCPVTKQVITETDLTPNHTLRRLIQSWCTLNASYGIERIPTPKPPICKSEIEKLIKESSSSHLNQVKCLKRLRQIVSENTTNKRCLEAAEVPEFLANIVSNSVDTYNSPSSSLSSSNLNDMCQSNMLENRFDSSRSLMDEALSVLYHLDTSETALKSLLNNKKGTNLVKTLTKIMQRGIYESRAYAALLLKKLLEVADPMQIILLERELFGEVIQILHDQISHKATRSAMQILVITCPWGRNRHKAVEGGTISMIIELLMDDTFSSERRNSEMAMVVLDMLCQCAEGRAEFLNHGAAIAVVSKKILRVSQITSERAVRVLLSVGRFCATPSLLQEMLQLGVVAKLCLVLQVSCGNKTKEKAKELLKLHARVWRESPCVPRNLYDSYPA
- binding [2]: no binding
- binding [3]: binds
- binding [4]: binds
- binding [5]: binds

B3: AD-PUB18 (enzyme, UniProt Q9XIJ5 1-697)
chain: MIHTKTGSGRRILTFPTVEPSESISIVTLLDSLIQLAGDILTFKSKHFSTNKQSFRETLRRIQNLLVVFEEIRIRIRNSRRYFHDSAAASSLKEIHVGFQKLKFLLEDCTRDGARLCMMMNSDQVSDHLRVLTRSISTSLSAFPVASVDLTTEVNELIDLVVRQARKYGVQPETNDKRAVSSINRILALFVNRVVPDPDEINRILDHVGIRKWGDCVKEINFLGEEIDAERLDEKKKKSSDQVELLSSLMGFICYCRCIILGRIERDDHHNHHEDGIKKDHDLIRGLKVEDLLCPISLEIMTDPVVIETGHTYDRSSITKWFGSGNITCPITGKILTSTELVDNVSVRQVIRKHCKTNGIVLAGISRRRKSHDDVVPESLAAKGAGKLIAKFLTSELINGGEEMIYRAVREIRVQTKTSSFNRSCLVKAGAVTPLLKLLSSVDIRIQENAMAGILNLSKHVTGKSKIAGEGLKILVEILNEGAKTETRLYSASALFYLSSVEDYSRLIGENPDAIPGLMNIVKGDDYGDSAKRSALLAVMGLLMQSDNHWRVLAAGAVPILLDLLRSGEISGGLTADCLATLAKLAEYPDGTIGVIRRGGLKLAVKILSSSEDSPVAVKQHCVGLILNLCLNGGRDVVGVLVKNSLVMGSLYTVLSNGEYGGSKKASALIRMIHEFQERKTGSVEPNLQRGRFVHAW
- binding [1]: no binding

B4: GST-PYL10 (receptor, UniProt Q8H1R0 1-183)
chain: MNGDETKKVESEYIKKHHRHELVESQCSSTLVKHIKAPLHLVWSIVRRFDEPQKYKPFISRCVVQGKKLEVGSVREVDLKSGLPATKSTEVLEILDDNEHILGIRIVGGDHRLKNYSSTISLHSETIDGKTGTLAIESFVVDVPEGNTKEETCFFVEALIQCNLNSLADVTERLQAESMEKKI
- binding [6]: no binding

From PMC5618490, “Arabidopsis E3 Ubiquitin Ligases PUB22 and PUB23 Negatively Regulate Drought Tolerance by Targeting ABA Receptor PYL9 for Degradation” (International Journal of Molecular Sciences, 2017)
